From PubChem BioAssay AID938 (National Center for Advancing Translational Sciences (NCATS), 2007)
Screen size: about 73,000 compounds; about 1,800 (2.5%) were called active. The shares of active, inactive and inconclusive entries below differ from those in the screen. The call rests on the fitted dose curve; in most records, active means well fitted activation curve with a large enough effect; inconclusive means small, poorly fitted or top-dose-only effect; inactive means no such curve, though single readings can be large or run the other way. No potency is given beside an inconclusive call; the fits are too rough.

Experiment: qHTS Assay for Agonists of the Thyroid Stimulating Hormone Receptor: Activators of Intracellular cAMP Concentrations in Parental HEK 293; further: nearly all actives have a fitted effect of over 55% in size; on activation: % of control where 0% means no effect
Settings: parental HEK293 CNG cAMP sensor, membrane potential fluorescence; activation: at 57.1 µM (top of the series) unless noted
In short: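 Counterscreen for endogenous-receptor signalling: CNG-channel HEK 293 cells report cAMP rise by membrane depolarization. After 60 min dye equilibration with 100 uM RO 20-1724, compounds incubated 30 min before bottom-read fluorescence at 590 nm.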
Potency means the concentration at half of the fitted maximal effect; tags describe the fitted curve by direction and shape.

Compound	Potency	activation
Clc1ccc(Cn2ncc3c(NCCN4CCOCC4)ncnc32)cc1	inconclusive [activator, single point]	–
O=c1cc(-c2ccccc2O)oc2c1ccc1ccccc12	inconclusive [activator, partial curve]	–
Cc1cc(C(=O)Cn2nnc3ccccc3c2=O)c(C)n1Cc1cccs1	inconclusive [activator, single point]	–
c1ccc2c(NCCN3CCOCC3)nc(-c3ccc4c(c3)OCO4)nc2c1	–	inactive: -90.3%
COc1ccc(C2(C(F)(F)F)NC(=O)N(C)C(=O)N2C)cc1 (stereo not given)	inconclusive [activator, partial curve]	–
Cc1occc1-c1nnc(SCC(=O)Nc2nccs2)n1CCc1ccccc1	inconclusive [activator, single point]	–
COc1ccc(CNC(=O)C(C)Cc2ccccc2)cc1O (stereo not given)	inconclusive [activator, single point]	–
Cc1cc(C)cc(N(CC(=O)NCc2ccco2)S(=O)(=O)c2c(C)noc2C)c1	inconclusive [activator, single point]	–
O=C(OC(C(=O)NCc1ccc2c(c1)OCO2)c1ccc(Cl)cc1)c1ccco1 (stereo not given)	inconclusive [activator, single point]	–
Cc1cc(C)n(-c2nc(SCC(=O)Nc3nccs3)c3c4c(sc3n2)COC(C)(C)C4)n1	inconclusive [activator, partial curve]	–
COc1ccc(-c2csc(C3=C(O)CN(Cc4ccc(S(N)(=O)=O)cc4)C3=N)n2)cc1OC	–	inactive: -6.5%
CC(C)[C@@H](CC(=O)N[C@@H]1CCNC[C@H]1C(=O)N[C@H](CC(=O)N[C@@H](CCC(=O)O)CC(=O)O)Cc1c[nH]c2ccccc12)NC(=O)C[C@H](Cc1c[nH]c2ccccc12)NC(=O)[C@@H]1CCCC[C@H]1N	inconclusive [activator, single point]	–
CCOC(=O)N1CCC2(CC1)C(C#N)=C(N)Oc1n[nH]c(CSc3ccc(C)cc3)c12	inconclusive [activator, single point]	–
C=CCn1c(SCC(=O)NCc2ccc3c(c2)OCO3)nnc1C1CCCCC1	active: 25.1 µM	–
Nc1cccc(-c2nc3ccc(N)cc3s2)c1	–	inactive: -5.73%
CCOc1ccc2ccccc2c1C(=O)N1CCN(c2ccccc2)CC1	inconclusive [activator, partial curve]	–
COC(=O)[C@@]1(Cc2ccc(OC)cc2)[C@H]2c3cc(C(=O)N4CCCC4)n(Cc4cc(F)cc5c4OCOC5)c3C[C@H]2CN1C(=O)c1ccccc1	active: 3.98 µM	–
CC(C)c1ccc2c([Si](C)(C)C)c3c(nc2c1)-c1cccc(=O)n1C3	–	inactive: 2.88%
Cc1cccc(-c2cc3nc4c(c(N5CCOCC5)n3n2)CCCC4)c1	inconclusive [activator, partial curve]	–
O=C(CSc1nnc(-c2ccc(Cl)cc2)n1Cc1ccco1)Nc1ccc2c(c1)OCCO2	inconclusive [activator, single point]	–
CN1CCN(c2ccnc(-c3cccnc3)n2)CC1	inconclusive [activator, partial curve, poor fit]	–
Cc1ccc(-c2noc(CCC(=O)NCC3CCN(Cc4cccc(C)c4)CC3)n2)cc1	inconclusive [activator, partial curve]	–

Compound	Potency	activation
COc1cccc(CN2CCCN(S(=O)(=O)c3ccc(Br)cc3)CC2)c1	inconclusive [activator, single point]	–
Cc1ccc(S(=O)(=O)c2nc(-c3ccc(F)cc3)oc2SCC(N)=O)cc1	inconclusive [activator, single point]	–
CN1CCN(c2ccnc(-c3ccc(N(C)C)cc3)n2)CC1	–	inactive: -17.4%
CN(C)c1ncc2nc(-c3ccc(Cl)cc3)c(=O)n(Cc3cccs3)c2n1	–	inactive: -2.89%
Cc1c(C)c2c(c(C)c1O)CC[C@@](C)(C(=O)O)O2	inconclusive [activator, single point]	–
Cc1cc(C)c(NC2=NCC(=O)N2C2CCCCC2)c(C)c1	inconclusive [activator, partial curve]	–
CN1CCN(S(=O)(=O)c2ccc(Sc3nnc(-c4cccs4)n3-c3ccccc3)nc2)CC1	inconclusive [activator, single point]	–
CCn1c(SCC(N)=O)nc2c(c1=O)C1(CCCC1)Cc1ccccc1-2	inconclusive [activator, partial curve]	–
CCOC(=O)C1=C(CC)Nc2ccccc2N=C1NC(=O)c1cccc(S(=O)(=O)N2CCCC2)c1	inconclusive [activator, partial curve]	–
CCC(C)(C)n1nnnc1C(c1cccs1)N1CCN(c2nc3ccccc3s2)CC1 (stereo not given)	active: 3.16 µM	–
O=C(NCCc1ccccc1)C1CCN(S(=O)(=O)N2CCCC2)CC1	active: 25.1 µM	–
CCOC(=O)N1CCN(C(=O)C(c2ccccc2)c2ccccc2)CC1	inconclusive [activator, partial curve]	–
COC(=O)c1ccc(NC(=O)CSc2nnc(C)n2-c2ccccc2)cc1	–	inactive: -0.356%
Cc1c(NC(=O)CN2c3cccc4cccc(c34)S2(=O)=O)c(=O)n(-c2ccccc2)n1C	inconclusive [activator, single point]	–
Cc1cc2ncn(S(=O)(=O)N3CCCCC3)c2cc1C	inconclusive [activator, single point]	–
CCCC(=O)NCCc1c2n(c3ccc(OC)cc13)CCCc1ccccc1-2	inconclusive [activator, single point]	–
O=c1c(-c2nc3ccccc3o2)c2oc3ccccc3n2c2ccccc12	–	inactive: -19.9%
O=C(O)C[C@H](Cc1ccccc1Cl)C(=O)O	–	inactive: 2.92% [at 11.4 µM]
O=C(O)Cn1nc(C(F)(F)F)c2c1CCCCC2	inconclusive [activator, full curve, poor fit]	–
CCc1cc2cccc(C)c2nc1SCC(=O)N1CCN(C(=O)c2ccco2)CC1	inconclusive [activator, single point]	–
O=C(CN1CCOc2ccccc21)NCc1ccccc1	inconclusive [activator, single point]	–
CCCCNc1nc(C)nc2c1nc(-c1ccccc1)n2C(C)CCCN(CC)CC (stereo not given)	inconclusive [activator, partial curve]	–

Compound	Potency	activation
Cc1cccc(OCC(O)CN2CCN(C3CCCCC3)CC2)c1 (stereo not given)	inconclusive [activator, single point]	–
CC1Cc2nc(SCC(=O)Nc3nccs3)n(C)c(=O)c2S1 (stereo not given)	inconclusive [activator, single point]	–
COc1ccc(C(CNC(=O)c2cc(C)oc2C)N2CCOCC2)cc1 (stereo not given)	–	inconclusive: 30% [activator]
CCN(C(=O)CCc1nc(-c2ccccc2F)no1)c1cc(OC)ccc1OC	inconclusive [activator, single point]	–
COC(=O)[C@@]1(Cc2ccc(OC)cc2)[C@H]2c3cc(C(=O)N(C)C)n(Cc4ccc(OC)c(OC)c4)c3C[C@H]2CN1C(=O)c1ccccc1	active: 15.8 µM	–
Cc1[nH]nc(-c2ccc(O)c(C)c2O)c1-c1cnn(-c2ccccc2)c1	inconclusive [activator, single point]	–
Cc1cccc(CNc2ncncc2-c2ccccc2Cl)c1	inconclusive [activator, partial curve]	–
CC(C)CCn1c(SCCc2ccccc2)nc2c1c(=O)[nH]c(=O)n2C	inconclusive [activator, single point]	–
COc1cc2oc(=O)c(Br)c(C)c2c(OC)c1OC	inconclusive [activator, single point]	–
Cc1c(C(=O)O)nc(/C=C\C(=O)O)[nH]c1=O	–	inactive: 0.247% [at 11.4 µM]
C=C(CC1([C@@H](NP(=O)(c2ccccc2)c2ccccc2)[C@H]2C[C@@H]2CCCC)CC1)c1cccc(OC)c1	inconclusive [activator, single point]	–
CCOC(=O)C[C@@H](C(=O)OCC)[C@@H]1CCCCC1=O	–	inactive: 0.0036% [at 11.4 µM]
c1ccc2c(c1)CCCN2Cc1nnc2n1CCCCC2	inconclusive [activator, single point]	–
O=C(Nc1nccs1)c1ccc(COc2ccc(F)cc2)o1	–	inactive: 22.5%
O=[N+]([O-])c1ccc2c(c1)c(S(=O)(=O)O)cc1nonc12	inconclusive [activator, full curve, poor fit]	–
COc1ccc(C(=O)N2CCC3(CC2)CN(C(=O)Nc2ccccc2)C3)cc1	inconclusive [activator, full curve, poor fit]	–
O=C(CNC(=O)c1ccccc1)NCCc1nc2ccccc2[nH]1	inconclusive [activator, single point]	–
CCOC(=O)Cn1nnnc1C(CC)N(Cc1cc2c(C)cc(C)cc2[nH]c1=O)C1CCCC1 (stereo not given)	–	inactive: -0.0655%
CCC(=O)Nc1cc(Cl)ccc1N1CCN(C(=O)CC)CC1	inconclusive [activator, partial curve]	–
O=C(NCCC1=CCCCC1)c1ccc2c(=O)n3c(nc2c1)CCCCC3	inconclusive [activator, full curve, poor fit]	–
CC(=O)N1CCC[C@@]2(CCN(Cc3ccccc3)C2)C1	inconclusive [activator, single point]	–
